Results: PubChem BioAssay AID1963576 (National Center for Advancing Translational Sciences (NCATS), 2024)
Screen size: about 46,000 compounds; about 60 (0.1%) were called active. Another 3% or so got no clear call; they are omitted. Calls follow the shape of the dose curve; as a rule, active = well fitted inhibition curve with a large enough effect; inconclusive = small, poorly fitted or top-dose-only effect; inactive = no such curve, though single readings can be large or run the other way. This is one part of the list.

Test: Primary qHTS assay for Inhibitors of ovarian cancer metastasis using an organotypic tumor microenvironment (TME) model. Also: nearly all actives have a fitted effect of over 65% in size.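 As to activity change, negative = inhibition: plate controls were DMSO wells for no effect and tomatine positive control wells for full effect.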
Conditions: SKOV3ip1-GFP adhesion/invasion on 3D omental model, fluorescence; series mostly up to 45.8 µM; activity change, negative = inhibition: at the top concentration
Summary of the method: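 Adhesion/invasion was scored as fixed GFP-labeled SKOV3ip1 cell counts (488/509 nm), normalized to DMSO and tomatine controls. Cancer cells in serum-free medium, with four compound doses (0.36-46 umol/L), sat 2 hr at RT then 16 hr at 37 C on a 48 hr fibroblast/mesothelial/ECM culture.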

Activity change, negative = inhibition, inactive:
COc1ccc(CNC(=O)c2ccc3c(c2)N(Cc2c(F)cccc2Cl)C(=O)CS3)cc1 -7.2%
O=C(CCn1cccn1)Nc1ccc(Br)cc1F 2.48%
O=C(CCSCc1ccccc1Cl)NCc1ccc(F)cc1Cl 10.3%
COc1ccccc1N1CCN(C(=O)c2c(C)oc3ncn(C)c(=O)c23)CC1 0.205%
Cc1cc2c(n1-c1ccc(C(=O)NCc3ccccc3Cl)cc1)CCCC2 -5.04%
O=C(CN1C(=O)CCn2nc(-c3ccccc3)cc21)NCc1ccc(Cl)cc1 -7.46%
Cc1cccc(CCNC(=O)c2cc3c(=O)n(C)c4ccccc4c3n2C)c1 -27.3%
CCc1cc2c(cc3c(=O)n(CCCC(=O)NCc4cccc(Cl)c4)ncn32)s1 -10.6%
CCN(CC)CCCNC(=O)Cc1csc2nc(-c3ccc(Cl)cc3)cn12 8.29%
CCOc1ccccc1NS(=O)(=O)c1ccc2c(c1)oc(=O)n2C 5.11%
CCOc1ccccc1C(=O)NC1(C(F)(F)F)C(=O)Nc2c1c(=O)[nH]c(=O)n2-c1ccc(F)cc1 (configuration not stated) -2.67%
CSc1ccc(CCNC(=O)CCc2c(C)nc3ncnn3c2C)cc1 10.3%
Cc1ccc(CN2C(=O)c3ccccc3CC2(C)C(=O)NC2CCCCC2)cc1 (configuration not stated) -0.376%
COc1ccc(NC(=O)NC2COc3ccccc3C2)cc1Cl (configuration not stated) -3.4%
Cc1cccc(N2CCN(C(=O)c3noc4c3COc3ccc(C)cc3-4)CC2C)c1 (configuration not stated) -10.9%
Cc1cccc2c1-c1sc(C(=O)N(C)c3cccc(Cl)c3)cc1CO2 -4.02%
COc1ccc(C(CC(=O)Nc2ccc(C(C)=O)cc2)N2Cc3ccccc3C2=O)cc1 (configuration not stated) 43.4%
O=C(c1ccc2c(c1)N(Cc1cccc(F)c1)C(=O)c1ccccc1S2)N1CCCC1 -1.12%
CC(C)c1cnc2c(c1SCC(=O)NCc1ccccc1Cl)c(=O)n(C)c(=O)n2C 48.9%
COC(=O)c1c(-c2cccs2)csc1NC(=O)COc1ccc(C)cc1 1.49%
COc1cccc(OC)c1C(=O)NCCc1csc(-c2ccc(Cl)cc2)n1 0.613%
Cc1ccc(C(=O)Nc2cccc3cccnc23)cc1Cl 10.6%
COc1ccccc1N1CCN(CCN(C(=O)C2CCCCC2)c2ccccn2)CC1 -13.6%
OC[C@H]1O[C@@H](Oc2cc(O)cc(C=Cc3ccc(O)cc3)c2)[C@H](O)[C@@H](O)[C@H]1O 5.04%
COc1ccc(-c2csc(=Nc3ccccc3)n2CCO)cc1F 14.9%
CN1CCN(c2ncc3c(n2)CCN(Cc2ccc(Br)s2)C3)CC1 -10%
CCOc1ccc(NC(=O)COc2ccc(S(=O)(=O)NC3CCCCC3)cc2)cc1 0.627%
CC(C)=CCCC(C)=CCCC(C)=CCCC(C)=CCCC(C)=CCCC(C)=CCCC(C)=CCCC(C)=CCCC(C)=CCO 10%
CCOC(=O)c1c(Nc2ccc(OC)cc2)nnc(-c2ccccc2)c1-c1ccccc1 -2.03%
CCOC(=O)N1CCc2c(sc3c2c(=O)n(-c2ccc(Cl)cc2)c(=O)n3CC(C)C)C1 -7.49%
CCCOc1ccc(-c2nc(SCC(=O)c3ccc(Cl)cc3)n[nH]2)cc1 3.76%
Cn1c(=O)c2sccc2n2c(CCC(=O)NCc3ccc(Cl)cc3)nnc12 -2.13%
CC(=O)c1ccc(N2CCN(C(=O)C3CCN(S(=O)(=O)c4cn(C)cn4)CC3)CC2)cc1 5.88%
Cc1cccn2c(=O)c(C(=O)NCc3cccc(F)c3)cnc12 -5.64%
Cc1ccc(Cl)cc1Nc1nn2c(=O)c3ccc(C(=O)NCc4ccc(F)cc4)cc3nc2s1 4.83%
CCc1ccc(NC(=O)Cn2ccn(-c3ccc(C)c(C)c3)c(=O)c2=O)cc1 -4.44%
Cc1ccc(S(=O)(=O)c2nc(S(=O)(=O)c3ccccc3)sc2NCCCOC(C)C)cc1 16.1%
Fc1ccc(Cl)cc1-c1nc(Nc2ccncc2)c2nccnc2n1 0.412%
COc1ccc(-c2nc3cc(NC(=O)CSc4ccc(C)cc4)ccc3o2)cc1 13.4%
COc1ccc(NC(=O)c2oc3ccccc3c2NC(=O)Cc2coc3c(C)c(C)ccc23)cc1 -22.2%
COc1ccccc1-c1cc(C(=O)NCc2ccccc2)c2c(-c3ccc(C)cc3)[nH]nc2n1 -3.05%
COc1cccc(NC(=O)Cn2cc(C(=O)c3ccc(C)cc3)c(=O)c3cc(OC)ccc32)c1 7.59%
CCN(CC)CCNC(=O)c1c2c(nc3ccccc13)C(=O)N(C1CCCCC1)C2 -5.37%
Cc1ccc(S(=O)(=O)NCCc2cn3ccsc3n2)c(C)c1 -9.4%
CCOc1ccc(NC(=O)/C(C#N)=C\c2ccc(-c3ccc(Cl)cc3)o2)cc1 2.44%
CC(C)c1ccc(OCC(=O)N(Cc2cccs2)C2CCS(=O)(=O)C2)cc1 (configuration not stated) 7.84%
Cc1cc2ccccc2n1CCNC(=O)c1ccc(Br)cc1 -12%
CCc1ccc(NC(=O)CN2C(=O)C3(SCC(=O)N3c3ccc(F)c(F)c3)c3ccccc32)cc1 (configuration not stated) 10.9%
CSc1ccc(-c2nnc(NC(=O)c3ccc4c(c3)OCCO4)o2)cc1 4.48%
Fc1ccccc1N1CCN(c2nc3ccccc3c3nc(-c4ccccc4)nn23)CC1 -3.28%
Cc1ccc(N2CC(C(=O)Nc3ccc(N(C)C)cc3)CC2=O)cc1Cl (configuration not stated) -10.4%
COC(=O)c1ccc(NC(=O)CN2C(=O)CC(c3ccccc3)Sc3ccccc32)cc1 (configuration not stated) 44.4%
C=C(C)CSc1nc(-c2ccccc2)cc(-c2ccc(OC)cc2)c1C#N 1.48%
Cc1cc(C)n(C(C)CC(=O)Nc2ccc(C)c(N(C)C)c2)n1 (configuration not stated) -11.2%
CCC(C(=O)N1CCN(c2ccccc2)CC1)n1c(C)c2cnn(-c3ccccc3)c(=O)c2c1C (configuration not stated) 5.74%
Cc1nnc(N2CCC(C(=O)NCCC(C)C)CC2)c2nn(-c3ccc(Cl)cc3)c(C)c12 -10.3%
CCOc1cc(Cl)c(S(=O)(=O)n2ccnc2)cc1Cl 3.53%
CCN(CC)c1ccc(NC(=O)CCCN2C(=O)C(c3ccccc3)Oc3cccnc32)c(C)c1 (configuration not stated) 7.81%
O=C(NC1CCCC1)c1ccc2c(=O)n(Cc3ccccc3)c(SCc3cccc(F)c3)nc2c1 -0.0042%
CC(=O)Nc1cccc(-n2cc3c(c2-c2ccccc2Cl)c(=O)n(C)c(=O)n3C)c1 1.41%
CC(C)Oc1ccc(C(=O)Nc2c(C(=O)Nc3cccc(F)c3)oc3ccccc23)cc1 -23.1%
COc1ccc(C)cc1Nc1cc(C)nc(C)n1 3.06%
O=C(CN1C(=O)c2cccnc2Oc2ccc(Cl)cc21)Nc1cccc(C(F)(F)F)c1 4.81%
O=C(CCn1ccc2cc(S(=O)(=O)N3CCCC3)ccc21)NCc1ccccc1Br 8.8%
O=C(CSc1nc(-c2ccc(F)cc2)[nH]c1-c1ccc(F)cc1)Nc1ccc2c(c1)OCO2 -1.75%
O=C(Cc1ccc(-c2ccccc2)cc1)NCCS(=O)(=O)N1CCN(c2ccccc2)CC1 -29.7%
COc1ccc(NC(C)=O)cc1NC(=O)CN1CCN(c2ccc(F)cc2)CC1 3.17%
O=C(NCCCN1CCOCC1)c1ccc2c(c1)N(Cc1cccc(Cl)c1)C(=O)c1ccccc1S2 -20.1%
Cc1cc(Nc2cccc(C(F)(F)F)c2)nc2ccc(NC(=O)c3cccc(Cl)c3)cc12 -1.77%
O=C(Cn1cc(S(=O)(=O)c2ccccc2)c(=O)c2cc(Cl)ccc21)Nc1ccc2c(c1)OCO2 6.06%
Cc1ccn2c(=O)cc(COc3cccc(NC(=O)Nc4cccc(Cl)c4C)c3)nc2c1 0.112%
Cc1ccc(CNC(=O)c2ccc(CS(=O)Cc3cccc(Cl)c3)o2)cc1 (configuration not stated) 5.18%
CCCCN(CCCNC(=O)c1cc(Nc2ccc(OC)c(OC)c2)nc2ccccc12)c1ccccc1 -3.05%
CC1CCCN(S(=O)(=O)c2ccc3c(c2)c(=O)nc2ccccn23)C1 (configuration not stated) -9.33%
Cc1ccc(-c2cn3c(n2)sc2cc(C(=O)NCCCc4ccccc4)ccc23)c(C)c1 -3.44%
CCOc1ccc(CNCc2c(C(=O)O)c(C)n(Cc3c(F)cccc3Cl)c2C)cc1OC 0.9%
Cc1ccccc1Nc1c(-c2cccnc2)nc2ccc(Cl)cn12 0.238%
COc1ccc(C2=C(Nc3ccc(C)cc3C)c3ccccc3C2=O)cc1 0.729%
CCc1cccc(NC(=O)CN(C)S(=O)(=O)c2ccc3c(c2)CCCN3C(C)=O)c1 0.475%
COc1ccccc1-c1noc(-c2ccc(NCC3CCCO3)c([N+](=O)[O-])c2)n1 (configuration not stated) -17.2%
Cc1cc(C)c(S(=O)(=O)NCC(c2ccc(N(C)C)cc2)N2CCOCC2)c(C)c1 (configuration not stated) -8.57%
Cc1ccc2oc(=O)n(CCCOc3ccccc3Cl)c2c1 1.97%
CCOC(=O)c1cnc2c(C)c(Cl)ccc2c1Nc1ccc(N2CCOCC2)cc1 -7.13%
CC(CCc1ccccc1)NC(=O)Cn1c(=O)nc(-c2ccccc2)c2ccccc21 (configuration not stated) -0.358%

outcome, inactive:
Cc1cccc(-c2nc3scc(CCNS(=O)(=O)c4ccc5c(c4)OCCO5)n3n2)c1
CCOc1ccc(CNC(=O)Cc2ccc(NC(=O)N3CCSc4ncccc43)cc2)cc1
Cc1ccccc1NC(=O)Cn1c(=O)n(Cc2ccc3c(c2)OCO3)c(=O)c2ccccc21
Cc1c(Cl)cccc1NC(=O)CCS(=O)(=O)c1ccc2c(c1)CC(=O)N2C
O=C(CSc1n[nH]c(-c2ccc(F)cc2)n1)NCCc1ccccc1
COc1ccc(CNC(=O)CCc2c(C)c3cc4c(C)c(C)oc4cc3oc2=O)cc1OC
Cc1cccc(C2CC(=O)Nc3cc4c(cc32)OCO4)c1 (configuration not stated)
CCOc1cc(C(=O)NCC(c2ccc(N(C)C)cc2)N2CCOCC2)cc(OCC)c1OCC (configuration not stated)
O=S(=O)(c1cccc2ccccc12)N1CCN(c2ccc(Cl)c(Cl)c2)CC1
COc1ccccc1NC(=O)C1=C(C)Nc2nc3ccccc3n2C1c1cccc(OC)c1OC (configuration not stated)
COc1ccc(-c2cc(C(F)(F)F)nc(SCC(=O)NCC(C)C)n2)cc1OC
CCc1nn2c(=O)c(S(=O)(=O)Nc3ccc(Cl)cc3)c(C)nc2s1
CCCCN(C)CCNC(=O)CN1C(=O)CSc2ccc(S(=O)(=O)N3CCOCC3)cc21
